From PubChem BioAssay AID588855 (National Center for Advancing Translational Sciences (NCATS), 2011)
Hit rate of the full screen: of about 410,000 compounds, about 5,000 (1.2%) were called active. Inconclusive results, whose numbers are uncertain, are shown with a selection of clear calls. The call rests on the fitted dose curve; in most records, active means well fitted inhibition curve with a large enough effect; inconclusive means small, poorly fitted or top-dose-only effect; inactive means no such curve, though single readings can be large or run the other way. A potency beside an inconclusive call is a rough fit, not a confirmed value.

test: qHTS for Inhibitors of TGF-b; conditions: HepG2 CAGA-GFP TGF-b/SMAD3 reporter, GFP fluorescence, 18 h, TGF-beta stimulated, 500 pg/mL final; series mostly up to 46.1 µM; activity, negative = inhibition: at the top concentration; further: nearly all actives have a fitted effect of over 65% in size
Outline: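 First, reporter cells (HEPG2 CAGA-GFP) rested 2 h at 37 degrees C. Next, compounds were pinned in and TGF-beta added to 500 pg/mL final. After 18 h, GFP was imaged per cell and summed per well.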
On the % scale 0 is the no-effect control and ±100 the full control effect; potency means the concentration at half of the fitted maximal effect; tags describe the fitted curve by direction and shape.

Row | Compound | Potency | activity, negative = inhibition
1 | Cc1cccc(C)c1OCc1cc(C(=O)N2CCN(c3ccccc3)CC2C)no1 (stereo not given) | inconclusive: 35.5 µM [inhibitor, single point] | –
2 | Cc1ccc(-n2ncc(C(=O)NC3CCCC3)c2C2CCN(C(=O)OC(C)(C)C)CC2)c(C)c1 | – | inactive: -19%
3 | CC1=C(C(=O)OCc2ccc(C)cc2)C(c2c(Cl)cccc2Cl)CC(=O)N1 (stereo not given) | inconclusive: 6.31 µM [inhibitor, partial curve, poor fit] | –
4 | Cc1cccc(NC(=O)C2CCN(S(=O)(=O)c3c(C)c(C)cc(C)c3C)CC2)n1 | inconclusive: 35.5 µM [inhibitor, single point] | –
5 | O=C(CSc1nnc(CNC(=O)c2c(F)cccc2Cl)o1)Nc1ccccc1F | inconclusive: 35.5 µM [inhibitor, single point] | –
6 | CCC(=O)N1c2ccccc2CC1C(=O)NCc1ccccc1C (stereo not given) | inconclusive: 0.631 µM [inhibitor, partial curve, poor fit] | –
7 | COc1ccc(OC)c(NC(=S)N(CCc2c(C)[nH]c3ccc(C)cc23)Cc2cccs2)c1 | inconclusive: 22.4 µM [inhibitor, single point] | –
8 | CC(=O)Nc1cccc(-c2ccnc3c2CC(C(=O)Nc2ccc(F)c(Cl)c2)O3)c1 (stereo not given) | inconclusive: 17.8 µM [inhibitor, partial curve] | –
9 | FC(F)(F)c1ccccc1NC(=S)N/N=C1\CC2CC=CC12 (stereo not given) | – | inactive: 0%
10 | CCOc1cc(/C=C2/C(=O)ON=C2C)ccc1OCc1ccccc1F | inconclusive: 22.4 µM [inhibitor, single point] | –
11 | CC1=CC(C)(C)NC(=S)N1c1ccc(C)cc1 | – | inactive: -25.3%
12 | COc1ccc(-c2cc(NC=O)c3ncc(-c4cccc(OC)c4)n3c2)cc1 | inconclusive: 4.47 µM [inhibitor, partial curve] | –
13 | Cc1ccc(SCc2[nH]nc3c2C(c2ccc(C)o2)C(C#N)=C(N)O3)cc1 (stereo not given) | inconclusive: 35.5 µM [inhibitor, single point] | –
14 | CCCC(=O)NC(c1ccccc1OC)c1ccc2cccnc2c1O (stereo not given) | – | inactive: -15.4%
15 | COc1ccc(-c2nc(CN3CCC(C(=O)NCCCN4CCN(c5ccccc5F)CC4)CC3)c(C)o2)cc1OC | inconclusive: 22.4 µM [inhibitor, single point] | –
16 | CN(C)NC(=S)NC(=O)C12CC3CC(CC(C3)C1)C2 | – | inactive: 1.05%
17 | CCOc1cc(C=C(C#N)C#N)ccc1Oc1ccc([N+](=O)[O-])cn1 | inconclusive: 31.6 µM [inhibitor, single point] | –
18 | Cc1ccc2nc(C3CCCCC3)[nH]c2c1 | – | inactive: -7.37%
19 | CCN(CC)c1ccc(NC(=O)COc2ccccc2C#N)cc1S(=O)(=O)Nc1ccccc1OC | – | inactive: -2.03%
20 | O=C(CCCN1C(=O)c2ccccc2C1=O)Nc1cccc(S(=O)(=O)NC2=NCCC2)c1 | – | inactive: -23.2%
21 | Nc1nc(NC(=O)c2ccco2)nn1-c1ccccc1 | inconclusive: 11.2 µM [inhibitor, partial curve, poor fit] | –
22 | CCOC(=O)C1C(c2ccccc2)NC(=S)NC1(C)O (stereo not given) | inconclusive: 2.82 µM [inhibitor, partial curve, poor fit] | –
23 | CCCc1nn(C)c(C(=O)Nc2cccc(CC)c2)c1Cl | inconclusive: 35.5 µM [inhibitor, single point] | –
24 | Cc1nn(CC(=O)NCCN2CCOCC2)c(=O)c2cc3sccc3n12 | – | inactive: 1.28%

Row | Compound | Potency | activity, negative = inhibition
25 | Cc1cc(OCC(=O)N2CCc3ccccc3C2)c2c(-c3ccccc3)cc(=O)oc2c1 | inconclusive: 8.91 µM [inhibitor, partial curve] | –
26 | O=C(Nc1ccccc1[N+](=O)[O-])C1(c2ccccc2)CCOCC1 | – | inactive: 9.64%
27 | COCCN(CCOC)Cc1cc(=O)oc2ccc3ccccc3c12 | – | inactive: -5.19%
28 | COc1ccc(-c2cc(C(=O)Nc3cc(C)n(Cc4ccc(Cl)cc4)n3)no2)cc1OC | inconclusive: 22.4 µM [inhibitor, partial curve, poor fit] | –
29 | COc1ccc(N2Cc3cccc(C(=O)Nc4ccc(C)cc4)c3C2=O)cc1 | – | inactive: -17%
30 | COc1ccc(CC(=O)NCc2ccc(Cl)cc2)cc1S(=O)(=O)N1CCOCC1 | inconclusive: 7.08 µM [inhibitor, full curve] | –
31 | COc1ccc(C)cc1NC(=O)CN1C(=O)CSc2ccc(S(=O)(=O)N3CCCC3)cc21 | inconclusive: 6.31 µM [inhibitor, single point] | –
32 | COc1ccc(F)cc1C1=CC(=O)C[C@H](c2ccc3c(c2)OCO3)C1 | – | inactive: -9.48%
33 | O=C(NNC(=O)c1cccnc1SCc1cccc([N+](=O)[O-])c1)c1ccccn1 | inconclusive: 35.5 µM [inhibitor, single point] | –
34 | COc1cccc(/C=N/NC(=O)c2ccoc2C)c1O | inconclusive: 8.91 µM [inhibitor, partial curve, poor fit] | –
35 | COc1cccc(-c2nnc(NC(=O)c3ccccc3Br)o2)c1 | – | inactive: -20.7%
36 | CC1(c2nnc(Cc3ccccc3)o2)CC(c2ccncc2)=NO1 (stereo not given) | – | inactive: -7.01%
37 | COc1ccc(C2Nc3ccccc3-n3c(-c4ccccc4)c4c(=O)n(C)c(=O)n(C)c4c32)cc1 (stereo not given) | – | inactive: -5.34%
38 | Cc1cccc(OCC(=O)N(Cc2ccco2)C2CCS(=O)(=O)C2)c1C (stereo not given) | – | inactive: 4.78%
39 | CC(C)=CCC[C@H](C)C[C@@H]1CC2=C(C(=O)OC(C)(C)O2)[C@H](c2ccc(Cl)cc2)O1 | inconclusive: 17.8 µM [inhibitor, partial curve] | –
40 | Cc1ccc(C)c(NC(=O)CCc2nc3cccnc3n2Cc2cccs2)c1 | inconclusive: 11.2 µM [inhibitor, partial curve] | –
41 | C=CC[n+]1c(/C=C2\C=Cc3cc(C)ccc3N2CC)ccc2ccccc21 | active: 3.98 µM | –
42 | C=C1[C@@H](O)[C@@H]2O[C@]3(CC[C@H](/C=C/[C@@H](C)[C@@H]4CC(C)=CC5(O[C@H](C[C@@](C)(O)C(=O)OC)CC[C@H]5O)O4)O3)CC[C@H]2O[C@@H]1[C@@H](O)C[C@H](C)[C@H]1OC2(CCCCO2)CC[C@H]1C (stereo not given in full) | active: 0.891 µM | –
43 | CC1(C)CC(=O)C2=C(C1)c1c(ccc3ccccc13)NC2c1ccco1 (stereo not given) | inconclusive: 11.2 µM [inhibitor, single point] | –
44 | CN(CCOc1ccccc1)S(=O)(=O)c1ccccc1C#N | – | inactive: 19.6%
45 | COc1ccc(-c2ocnc2C(=O)NCc2nn(-c3ccccc3)nc2C)cc1 | inconclusive: 11.2 µM [inhibitor, single point] | –
46 | CCn1c(SCC(=O)NC2CC2)nnc1-c1ccc(C)cc1 | – | inactive: 0.0605%
47 | Cc1coc2cc3oc(=O)c(CCC(=O)N4CCCCC4)c(C)c3cc12 | – | inactive: -16.1%
48 | c1coc(CNc2nc3nonc3nc2NCc2ccco2)c1 | inconclusive: 11.2 µM [inhibitor, single point] | –

Row | Compound | Potency | activity, negative = inhibition
49 | CCOC(=O)c1ccccc1NC(=O)c1c(-c2ccccc2)noc1C | – | inactive: 5.32%
50 | COc1ccc(C#Cc2c(-c3ccsc3)oc3ccc(N4CCOCC4)cc23)cc1 | – | inactive: -8.11%
51 | CC(O)(c1cccnc1)c1nc(-c2cccc(F)c2)cs1 (stereo not given) | inconclusive: 6.31 µM [inhibitor, single point] | –
52 | CCOC(=O)c1nnn(-c2nonc2N)c1COc1cc(C)c(Cl)c(C)c1 | inconclusive: 5.62 µM [inhibitor, full curve, poor fit] | –
53 | C[n+]1ccccc1/C=C/c1c(F)cccc1F | inconclusive: 12.6 µM [inhibitor, single point] | –
54 | Cn1ncc(Br)c1C(=O)N/N=C/c1cccc(OC2CSC2)c1 | inconclusive: 35.5 µM [inhibitor, single point] | –
55 | COc1cccc(CN(C(=O)c2oc3ccc(Br)cc3c2C)C2CCS(=O)(=O)C2)c1 (stereo not given) | inconclusive: 20 µM [inhibitor, single point] | –
56 | Cc1cc([N+](=O)[O-])nn1Cc1noc(C(=O)NCCCn2ccnc2)n1 | – | inactive: 7.85%
57 | CCN(CC)Cc1ccc(NC(=O)c2sc3cc(Cl)ccc3c2Cl)cc1 | inconclusive: 35.5 µM [inhibitor, single point] | –
58 | CCN(CC)CCN(C(=O)c1ccc2c(c1)CCCC2)c1nc2c(OC)cccc2s1 | inconclusive: 35.5 µM [inhibitor, single point] | –
59 | CC(=O)Nc1ccc(S(=O)(=O)N2CCCC(C(=O)N3CCN(c4ccccc4)CC3)C2)cc1 (stereo not given) | inconclusive: 1.58 µM [inhibitor, full curve] | –
60 | Cc1ccc(S(=O)(=O)c2c(C)cc(C)nc2N2CCOCC2)cc1 | – | inactive: -4.28%
61 | Cc1ccc(C)c(C(=O)C(C)OC(=O)c2cccn2C)c1 (stereo not given) | inconclusive: 6.31 µM [inhibitor, single point] | –
62 | CCC(=O)N1CCN(c2ccccc2NC(=O)COc2ccc(C(C)C)cc2)CC1 | inconclusive: 35.5 µM [inhibitor, single point] | –
63 | COc1ccc(Cn2c(-c3ccc(C)cc3)c[n+]3ccccc23)cc1 | inconclusive: 5.62 µM [inhibitor, full curve, poor fit] | –
64 | Cc1ccnc2c(O)cccc12 | active: 3.55 µM | –
65 | COc1ccc(/C=C/c2ccncc2)c2ccccc12 | inconclusive: 2 µM [inhibitor, full curve] | –
66 | CCc1nnc(NC(=O)CCC(=O)Nc2ccccc2)s1 | – | inactive: 4.45%
67 | Cc1ccc2c(CC(=O)N3CCN(c4cccc(Cl)c4)CC3)coc2c1C | inconclusive: 11.2 µM [inhibitor, partial curve, poor fit] | –
68 | CN(C)c1ccc(-c2ccnc3c2CC(C)(C(=O)NCC2CC2)O3)cc1 (stereo not given) | – | inactive: -30.2%
69 | COc1cc(NC(=O)Nc2nc(C(N)CCc3ccccc3)cs2)cc(OC)c1OC (stereo not given) | inconclusive: 35.5 µM [inhibitor, single point] | –
70 | CCOc1ccc(S(=O)(=O)N(CC(=O)Nc2cccnc2)c2ccc(F)cc2)cc1 | inconclusive: 4.47 µM [inhibitor, single point] | –
